The whole screen tested about 230,000 compounds, of which about 1,500 (0.65%) were called active. Inconclusive means that the source gave no clear call. Such entries were picked first, then a sample of the others. Calls follow the shape of the dose curve; as a rule, active = well fitted inhibition curve with a large enough effect; inconclusive = small, poorly fitted or top-dose-only effect; inactive = no such curve, though single readings can be large or run the other way. Potencies beside an inconclusive call are fits to weak or partial responses and may not hold up.
biological target: Lethal(3)malignant brain tumor-like protein 1 (Homo sapiens) (UniProt Q9Y468); test: qHTS Assay for the Inhibitors of L3MBTL1; conditions: AlphaScreen L3MBTL1–H3K9me1 peptide binding; series mostly up to 57.1 µM; also: nearly all actives have a fitted effect of over 60% in size
Procedure, shortened: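 Displacement of a biotinylated histone H3(1-15) peptide monomethylated at Lys9 (75 nM) from L3MBTL1 (50 nM) was measured by AlphaScreen after a 30 min room-temperature compound incubation; cefsulodin titration served as intraplate control.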
Potency is read from the fitted curve at half-maximal effect; tags tell the direction and shape of the fitted curve.

UniProt Q9Y468, sequence (Q9Y468 whole entry, looked up): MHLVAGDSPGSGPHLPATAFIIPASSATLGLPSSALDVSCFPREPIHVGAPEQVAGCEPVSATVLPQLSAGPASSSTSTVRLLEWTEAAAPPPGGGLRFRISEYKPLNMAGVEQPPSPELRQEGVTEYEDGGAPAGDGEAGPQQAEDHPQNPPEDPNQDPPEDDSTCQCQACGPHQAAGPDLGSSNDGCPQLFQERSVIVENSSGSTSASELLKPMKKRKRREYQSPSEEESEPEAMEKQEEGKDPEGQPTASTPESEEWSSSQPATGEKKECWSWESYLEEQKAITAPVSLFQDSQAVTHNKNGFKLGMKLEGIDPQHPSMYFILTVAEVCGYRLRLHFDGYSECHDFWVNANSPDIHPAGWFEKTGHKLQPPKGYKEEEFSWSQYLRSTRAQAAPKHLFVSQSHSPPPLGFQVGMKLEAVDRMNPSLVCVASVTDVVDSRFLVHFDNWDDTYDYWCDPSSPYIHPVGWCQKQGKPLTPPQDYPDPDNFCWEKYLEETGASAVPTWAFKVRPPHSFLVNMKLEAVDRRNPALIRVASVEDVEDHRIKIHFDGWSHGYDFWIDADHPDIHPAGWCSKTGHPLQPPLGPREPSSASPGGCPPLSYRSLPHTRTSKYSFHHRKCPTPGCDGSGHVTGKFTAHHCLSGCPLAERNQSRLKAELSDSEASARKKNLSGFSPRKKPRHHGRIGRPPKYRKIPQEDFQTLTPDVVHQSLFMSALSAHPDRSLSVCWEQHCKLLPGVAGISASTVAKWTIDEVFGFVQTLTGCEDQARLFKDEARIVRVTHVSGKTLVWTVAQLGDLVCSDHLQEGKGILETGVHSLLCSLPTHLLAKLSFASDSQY

| Compound | Potency |
| --- | --- |
| Cc1ccc(C2(C)NC(=O)N(CC(=O)Nc3cccnc3Cl)C2=O)cc1 (configuration not stated) | inconclusive: 1.12 µM [inhibitor, partial curve] |
| Cc1nnc(N(Cc2ccco2)C(=O)c2ccc(C#N)cc2)s1 | inconclusive: 7.08 µM [inhibitor, single point] |
| CCN1C(=O)/C(=C2\C=Cc3cc(C)ccc3N2CC)OC1=S | inconclusive: 10 µM [inhibitor, partial curve] |
| COC(=O)C1=C(C(=O)OC)C2(OC1c1ccc(Br)cc1)C(=O)c1ccccc1C2=O (configuration not stated) | inconclusive: 6.31 µM [inhibitor, single point] |
| COC(=O)c1nn(-c2ccc(OC)cc2)c(=O)cc1NN | inconclusive: 25.1 µM [inhibitor, single point] |
| COc1ccc(NC(=O)N(C2CCCCC2)C(C)c2ccco2)c(OC)c1 (configuration not stated) | inactive |
| CCNc1nc(NCC)n2c(SCC(=O)Nc3ccc(F)cc3)nnc2n1 | active: 28.2 µM |
| CC(CN1CCOCC1)OC(=O)c1ccc(Br)cc1 (configuration not stated) | inconclusive: 39.8 µM [inhibitor, single point] |
| Cc1cc(C)n(-c2nnc(NC34CC5CC(CC(C5)C3)C4)nn2)n1 | inconclusive: 31.6 µM [inhibitor, single point] |
| COC(=O)c1cc(C(=O)OC)cc(-n2c(C)cc(C(=O)COC(=O)CNS(=O)(=O)c3ccc(C)cc3)c2C)c1 | inconclusive: 28.2 µM [inhibitor, single point] |
| CCOC(=O)C1CCN(C(=O)CSCc2nc(-c3ccc(OCC)cc3)oc2C)CC1 | inactive |
| CC(C)(C)C(=O)NC(=S)Nc1sc2c(c1C#N)CCCCC2 | inactive |
| [O-]/C(=C(\C(=S)Nc1cccc2ccccc12)[n+]1ccccc1)c1cccs1 | inconclusive: 22.4 µM [inhibitor, partial curve] |
| CCOP(=O)(OCC)C(O)c1cc(OC)c(OC)c(OC)c1 (configuration not stated) | inconclusive: 0.708 µM [inhibitor, single point] |
| Cc1ccc(NC(=S)NNC(=O)c2nnn(-c3ccccc3)c2C)cc1 | inconclusive: 12.6 µM [inhibitor, partial curve] |
| CN1C(=O)C2(c3ccccc31)N(C)CC(c1ccccn1)C21SC(=S)N(Cc2ccco2)C1=O (configuration not stated) | inconclusive: 22.4 µM [inhibitor, single point] |
| CS(=O)(=O)N1CCC(C(=O)NCc2ccco2)CC1 | inconclusive: 6.31 µM [inhibitor, single point] |
| COc1ccc(OC)c(-c2csc(NC(=O)COC(=O)c3ccc(NC(=O)CC#N)cc3)n2)c1 | inconclusive: 31.6 µM [inhibitor, single point] |
| O=[N+]([O-])c1cc(Cl)ccc1Nc1ccccc1 | active: 28.2 µM |
| Cc1ccc(CC(=O)N2CCC(c3nc4c(nnn4Cc4ccccc4)c(=O)[nH]3)CC2)cc1 | inconclusive: 3.98 µM [inhibitor, single point] |
| N#Cc1ccccc1NC(=O)c1ccc(-c2ccccc2Cl)o1 | inconclusive: 2 µM [inhibitor, single point] |
| CCn1cc(C(=O)N2CC(C)CC(C)C2)c(=O)c2cc(S(=O)(=O)N(C)C)ccc21 (configuration not stated) | inactive |
| CS(=O)(=O)N(CC(=O)NCCSc1ccc(Cl)cc1)c1ccc2c(c1)OCO2 | inconclusive: 6.31 µM [inhibitor, single point] |

| Compound | Potency |
| --- | --- |
| CCc1c(C)sc(NC(=O)c2cc(-c3cc(OC)ccc3OC)on2)c1C#N | inactive |
| O=C(/C=C/c1ccco1)N(c1ccccn1)c1ccccn1 | active: 3.98 µM |
| Cn1c(-c2cccc([N+](=O)[O-])c2)cnc1NCc1cccc([N+](=O)[O-])c1 | inconclusive: 35.5 µM [inhibitor, partial curve] |
| Cc1ccn(C(=O)c2ccc(NC(=O)CC(C)C)cc2)n1 | inconclusive: 25.1 µM [inhibitor, partial curve, poor fit] |
| COc1cc(NC(=O)COC(=O)c2[nH]c(C)c(C(C)=O)c2C)cc(OC)c1 | inactive |
| CCN(CC)c1ccc(NC(=O)CCCCCN2C(=O)c3ccccc3C2=O)cc1 | inconclusive: 17.8 µM [inhibitor, single point] |
| Cc1ccc(OCc2nnc(SCc3cc(=O)[nH]c4ccccc34)o2)cc1 | inconclusive: 6.31 µM [inhibitor, single point] |
| COc1ccc2c(-c3ccccc3)cc(SCC(=O)NC3CCS(=O)(=O)C3)nc2c1 (configuration not stated) | inactive |
| COc1ccccc1N1CCN(C(=O)c2ccc3nc(-c4ccco4)c(-c4ccco4)nc3c2)CC1 | active: 28.2 µM |
| Nc1cc2c(cc1O)CCCC2 | inconclusive: 4.47 µM [inhibitor, partial curve] |
| CCOC(=O)C(=O)NCc1ccc(/C=C2/N=C(C)C(C(=O)OCC)=C2O)o1 | inconclusive: 25.1 µM [inhibitor, single point] |
| O=C(COc1ccc([N+](=O)[O-])cc1)Nc1nnc(-c2cccnc2)s1 | inconclusive: 20 µM [inhibitor, partial curve] |
| Cn1c(CSCc2ccc(F)cc2)nnc1SCC(=O)Nc1nccs1 | inconclusive: 6.31 µM [inhibitor, single point] |
| CCCN(CC(=O)Nc1ccc(Cl)cc1Cl)C(=O)/C=C/c1ccco1 | inconclusive: 6.31 µM [inhibitor, single point] |
| C#CCOCCOCCOCCNc1nc(N2CCN(C(=O)CCCCCCCCCCNC(=O)[C@H]([C@@H](C)CC)n3cc(CCCCCN)nn3)CC2)nc(N2CCN(C(=O)CCCCCCCCCCNC(=O)[C@H](CO)n3cc(CCCCCN)nn3)CC2)n1 | inactive |
| CCN(CC(F)(F)C(F)F)S(=O)(=O)c1ccc(NC(=O)OC)cc1 | inactive |
| Cc1nc(N)sc1-c1csc(Nc2cccc(C(=O)O)c2)n1 | active: 22.4 µM |
| Cc1ccc(S(=O)(=O)N(C)C)cc1NC(=O)c1cc(C(C)(C)C)nn1Cc1ccccc1 | inconclusive: 8.91 µM [inhibitor, partial curve] |
| COc1cc(CNc2ccc(O)cc2)cc(Br)c1OCc1ccccc1F | inconclusive: 25.1 µM [inhibitor, single point] |
| Cc1ccc(C(=O)N2CCN(c3ccccc3Cl)CC2)cc1[N+](=O)[O-] | inconclusive: 25.1 µM [inhibitor, single point] |
| O=C(OCCN1C(=O)c2cccc3c(N4CCOCC4)ccc(c23)C1=O)c1ccc(Cl)cc1Cl | inconclusive: 8.91 µM [inhibitor, single point] |
| CCOCCCn1c(=NC(=O)c2cccnc2)c(C(=O)OCC)cc2c(=O)n3ccccc3nc21 | inactive |
| CCCn1c(N)c(C(=O)CN(C)CC(=O)Nc2cc(C)ccc2C)c(=O)[nH]c1=O | inactive |

| Compound | Potency |
| --- | --- |
| COc1ccccc1N1CCN(C(=O)c2ccc(-c3ccc(Cl)cc3)o2)CC1 | inconclusive: 28.2 µM [inhibitor, partial curve] |
| COc1ccc(O)c(/C=N/Nc2nc(Nc3ccccc3)nc(-n3nc(C)cc3C)n2)c1 | inconclusive: 20 µM [inhibitor, single point] |
| COc1ccc(-n2c(Cc3cccn3C)nnc2SCC(=O)Nc2ccccc2)cc1 | inactive |
| N/C(=N\OC(=O)Cc1ccc([N+](=O)[O-])cc1)c1ccccn1 | inconclusive: 39.8 µM [inhibitor, single point] |
| CC12CCC(=O)N1C(C(=O)OCC(=O)Nc1cccc(Br)c1)CS2 (configuration not stated) | inconclusive: 3.55 µM [inhibitor, partial curve, poor fit] |
| C/C(CC(=O)Nc1ccc2c(c1)OCCO2)=N\NC(=O)c1ccccn1 | inconclusive: 39.8 µM [inhibitor, single point] |
| CCOC(=O)c1sc(NC(=O)CCC(=O)O)nc1C | inactive |
| Cc1c(NC(=O)C(C)OC(=O)c2ncc(Cl)c(Cl)c2Cl)c(=O)n(-c2ccccc2)n1C (configuration not stated) | inactive |
| CN(C)CCN(C(=O)c1cc(Cl)sc1Cl)c1nc2ccc(F)cc2s1 | inactive |
| CC(=O)Nc1ccc(C(=O)c2ccccc2)cc1 | inconclusive: 0.708 µM [inhibitor, single point] |
| CCN(CC)CCOc1ccc2c(c1)C(=NNC(=O)c1ccccn1)c1cc(OCCN(CC)CC)ccc1-2 | inconclusive: 31.6 µM [inhibitor, single point] |
| CCCCn1nc2cc(C(=O)NCCCCc3ccccc3)ccc2c1OCC | inconclusive: 28.2 µM [inhibitor, single point] |
| O=C(Cn1cnc2c(nnn2-c2ccccc2)c1=O)NCc1ccc(F)cc1 | inactive |
| CCOC(=O)c1ccccc1NC(=O)c1ccc2nccnc2c1 | inconclusive: 28.2 µM [inhibitor, single point] |
| Cc1nnc(-c2ccccc2)[nH]c1=O | inconclusive: 8.91 µM [inhibitor, single point] |
| CSc1ccc(CN2CCc3c([nH]c4ccccc34)C2)cc1 | inactive |
| CC(=O)C1=C(C)NC(=S)NC1c1cccc([N+](=O)[O-])c1 (configuration not stated) | inconclusive: 3.98 µM [inhibitor, single point] |
| Cc1nn(CCCC(=O)Nc2cc(Oc3ccc(F)cc3)cc([N+](=O)[O-])c2)c(C)c1[N+](=O)[O-] | inconclusive: 39.8 µM [inhibitor, single point] |
| CSC1=NSC2=NC(=O)/C(=C/c3coc4ccc(O)cc4c3=O)C(=N)N12 | inconclusive: 28.2 µM [inhibitor, single point] |
| Cc1ccn2c(=O)nc(SCC(=O)NCc3ccco3)nc2c1 | inconclusive: 28.2 µM [inhibitor, single point] |
| NC(=O)c1ccc(-n2nnnc2SCC(=O)c2ccc(O)c(O)c2)cc1 | inconclusive: 39.8 µM [inhibitor, partial curve, poor fit] |

Source: PubChem BioAssay AID485360 (National Center for Advancing Translational Sciences (NCATS), 2010)
